Source: the supplement of paper PMC3334620
The full ranking holds about 33,000 sequences; the median of “E-score (-0.5 to 0.5)” is about -0.053, and the highest 2% start at about 0.37. Some of the results follow.

What follows are sequences tested against Hap1 (UniProt P0CE41) (assay: PBM E-score (8-mer binding enrichment) (E-score (-0.5 to 0.5)); higher = stronger / more preferred TF binding; most listed sequences are background and not binding sites). Settings: protein concentration: 200 nM; construct: GST-DNA-binding domain.
Chain of UniProt P0CE41 (P0CE41 whole entry, the tested form may be a part): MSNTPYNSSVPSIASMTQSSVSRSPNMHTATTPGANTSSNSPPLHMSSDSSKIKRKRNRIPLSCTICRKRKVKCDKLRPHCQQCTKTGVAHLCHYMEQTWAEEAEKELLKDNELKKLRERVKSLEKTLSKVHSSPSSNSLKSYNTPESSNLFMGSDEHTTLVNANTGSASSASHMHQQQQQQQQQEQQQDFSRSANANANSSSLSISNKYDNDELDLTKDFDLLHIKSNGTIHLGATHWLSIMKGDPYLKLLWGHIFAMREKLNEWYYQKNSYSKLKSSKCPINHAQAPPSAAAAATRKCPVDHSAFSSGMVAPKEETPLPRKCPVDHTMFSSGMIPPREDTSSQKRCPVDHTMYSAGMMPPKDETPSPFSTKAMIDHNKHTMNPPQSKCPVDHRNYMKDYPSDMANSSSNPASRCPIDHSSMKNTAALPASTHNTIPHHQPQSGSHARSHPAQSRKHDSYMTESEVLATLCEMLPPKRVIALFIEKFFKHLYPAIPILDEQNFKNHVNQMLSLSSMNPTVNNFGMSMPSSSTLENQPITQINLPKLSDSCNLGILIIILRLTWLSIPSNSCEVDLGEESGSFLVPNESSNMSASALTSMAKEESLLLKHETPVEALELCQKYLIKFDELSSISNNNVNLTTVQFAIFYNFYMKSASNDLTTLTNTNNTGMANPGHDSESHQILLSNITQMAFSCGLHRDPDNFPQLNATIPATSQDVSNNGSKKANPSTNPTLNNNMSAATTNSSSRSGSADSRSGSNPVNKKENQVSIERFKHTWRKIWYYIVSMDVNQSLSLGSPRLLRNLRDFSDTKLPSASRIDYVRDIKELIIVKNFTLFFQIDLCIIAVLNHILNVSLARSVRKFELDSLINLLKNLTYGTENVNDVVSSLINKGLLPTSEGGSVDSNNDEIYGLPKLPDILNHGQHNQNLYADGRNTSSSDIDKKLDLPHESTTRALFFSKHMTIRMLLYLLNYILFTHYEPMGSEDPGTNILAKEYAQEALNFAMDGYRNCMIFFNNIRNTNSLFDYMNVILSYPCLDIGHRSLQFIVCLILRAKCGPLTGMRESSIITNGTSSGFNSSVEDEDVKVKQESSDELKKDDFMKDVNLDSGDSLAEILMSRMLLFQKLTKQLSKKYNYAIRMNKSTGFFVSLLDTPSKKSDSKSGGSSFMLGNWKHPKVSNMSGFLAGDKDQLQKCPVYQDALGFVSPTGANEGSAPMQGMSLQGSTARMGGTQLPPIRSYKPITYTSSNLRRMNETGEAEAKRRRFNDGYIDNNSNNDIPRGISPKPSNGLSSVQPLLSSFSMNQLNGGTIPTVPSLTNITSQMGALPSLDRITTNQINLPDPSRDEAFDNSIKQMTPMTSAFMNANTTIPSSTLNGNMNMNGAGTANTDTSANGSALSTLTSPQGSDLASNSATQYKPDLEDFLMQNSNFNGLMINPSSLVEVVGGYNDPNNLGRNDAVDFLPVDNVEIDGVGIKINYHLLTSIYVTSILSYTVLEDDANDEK
Description: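 Universal 'all 10-mer' protein binding microarrays (Agilent AMADID 015681) probed with GST-tagged S. cerevisiae TFs (full-length or DBD) made by in vitro transcription/translation (PURExpress), about 100-200 nM. Bound TF was detected with fluorescent anti-GST. Each ungapped 8-mer (which stands for itself and its reverse complement) is scored by the PBM enrichment score (E-score), a modified Wilcoxon-Mann-Whitney statistic from -0.5 to +0.5, computed with the Universal PBM Analysis Suite. Scale: above 0.35 generally sequence-specific binding.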
For CAAACATA, the “PBM E-score” value was -0.255.
ATGTTCGG was tested, and the “PBM E-score” value was 0.255.
In the case of ACGTGATC, the “PBM E-score” value is reported as -0.0584.
With CTATACTA the “PBM E-score” value was -0.0572.
AGACCAAA was tested, and the “PBM E-score” value was -0.0471.
With AACAGTTG the “PBM E-score” value was -0.0951.
In the case of ATTAGCGC, the “PBM E-score” value is reported as 0.0834.
With ACCCGCCT the “PBM E-score” value was -0.0282.
For AAACGTAG, the “PBM E-score” value was -0.24.
For AAGGACTC, the “PBM E-score” value was 0.0381.
ACCTTTTG was tested, and the “PBM E-score” value was 0.00851.
In the case of CTCCAGTC, the “PBM E-score” value is reported as 0.00384.
With CGGAAACG the “PBM E-score” value was 0.254.
For AGTGAGGG, the “PBM E-score” value was -0.173.
For ACGGCATA, the “PBM E-score” value was -0.0591.
For ATCCACTC, the “PBM E-score” value was 0.0225.
With TCGAGCCA the “PBM E-score” value was -0.186.
In the case of ACAAATTG, the “PBM E-score” value is reported as -0.076.
In the case of ATATCCGG, the “PBM E-score” value is reported as 0.452.
With CCTGGTTA the “PBM E-score” value was -0.219.
In the case of TCTCAGCA, the “PBM E-score” value is reported as -0.326.
In the case of GCTATCAC, the “PBM E-score” value is reported as -0.0699.
For GTACGCGA, the “PBM E-score” value was -0.225.
With TGGCCACA the “PBM E-score” value was -0.0517.
With AGGATGCA the “PBM E-score” value was -0.194.
In the case of ATCCGTTA, the “PBM E-score” value is reported as 0.409.
In the case of AGTAATCA, the “PBM E-score” value is reported as 0.0446.
With CAAAGACA the “PBM E-score” value was 0.00289.
ACGTCCTA was tested, and the “PBM E-score” value was -0.0197.
In the case of GAACGCAC, the “PBM E-score” value is reported as -0.0629.
In the case of TATTCGGA, the “PBM E-score” value is reported as 0.37.
For GAACCGGA, the “PBM E-score” value was 0.382.
In the case of CGACCGAC, the “PBM E-score” value is reported as 0.301.
With TGGGCGAA the “PBM E-score” value was -0.0412.
CGCTGGGC was tested, and the “PBM E-score” value was 0.104.
In the case of ACAAATAA, the “PBM E-score” value is reported as 0.0132.
For CCACTCGC, the “PBM E-score” value was 0.0299.
With TACGCACA the “PBM E-score” value was -0.138.
CAGTCGGG was tested, and the “PBM E-score” value was 0.252.
In the case of AAAGCTAA, the “PBM E-score” value is reported as -0.123.
In the case of GGACCTGA, the “PBM E-score” value is reported as 0.0872.
In the case of ATGCAGGG, the “PBM E-score” value is reported as -0.275.
CGATCGCA was tested, and the “PBM E-score” value was 0.0453.
For AGGTCCGC, the “PBM E-score” value was 0.33.
For ATTCAGGG, the “PBM E-score” value was -0.062.
In the case of CGCATTGA, the “PBM E-score” value is reported as 0.117.
In the case of CGGATGAC, the “PBM E-score” value is reported as 0.233.
With CTCTGAAC the “PBM E-score” value was -0.171.
For CGTATTAC, the “PBM E-score” value was 0.17.
For GACCCTAA, the “PBM E-score” value was -0.0254.
For GAGTTTAA, the “PBM E-score” value was 0.0474.
With CGCTTGAC the “PBM E-score” value was -0.0591.
In the case of AGGGGGAA, the “PBM E-score” value is reported as -0.304.
In the case of AATCTAGT, the “PBM E-score” value is reported as 0.08.
In the case of ACTTCTTC, the “PBM E-score” value is reported as -0.125.
For TCAGAAAA, the “PBM E-score” value was -0.316.
In the case of CCCCTCTA, the “PBM E-score” value is reported as -0.0873.
For CCTGCTGA, the “PBM E-score” value was -0.165.
In the case of AAGGTCAC, the “PBM E-score” value is reported as -0.184.
With AACTACAG the “PBM E-score” value was 0.0529.
For GAGCAAGC, the “PBM E-score” value was -0.0766.
TACGGTGA was tested, and the “PBM E-score” value was 0.0448.
GCCAGGGC was tested, and the “PBM E-score” value was -0.0132.
AAGGACTA was tested, and the “PBM E-score” value was -0.253.
With CTCTGCCC the “PBM E-score” value was -0.0938.
AGCGGGCC was tested, and the “PBM E-score” value was 0.166.
With CGCCCTCC the “PBM E-score” value was 0.0182.
In the case of CCGAACAA, the “PBM E-score” value is reported as 0.349.
With AAGGTTGA the “PBM E-score” value was -0.109.
For CTCAGCAG, the “PBM E-score” value was -0.265.
With CGTTCACA the “PBM E-score” value was 0.00621.
For CACCAGGA, the “PBM E-score” value was -0.0507.
CCCACTCG was tested, and the “PBM E-score” value was 0.0808.
For ATTAGTTC, the “PBM E-score” value was 0.0975.
In the case of ACCTTTCC, the “PBM E-score” value is reported as 0.231.
For CGAGGGGC, the “PBM E-score” value was -0.123.
CGCAGGAC was tested, and the “PBM E-score” value was -0.15.
CATATATG was tested, and the “PBM E-score” value was -0.177.
With TAGGGCCA the “PBM E-score” value was -0.218.
In the case of AAAAGTTG, the “PBM E-score” value is reported as -0.181.
For TAGGCTGA, the “PBM E-score” value was -0.232.
In the case of CGCCAATC, the “PBM E-score” value is reported as -0.0573.
In the case of CAAACTCA, the “PBM E-score” value is reported as -0.128.
With ACCGTCAG the “PBM E-score” value was -0.057.
With TATGTTAA the “PBM E-score” value was -0.102.
GGCCCTGA was tested, and the “PBM E-score” value was -0.0873.
In the case of CGCGACTA, the “PBM E-score” value is reported as 0.197.
With AATGTCAT the “PBM E-score” value was -0.0552.
In the case of AAAAGACT, the “PBM E-score” value is reported as -0.259.
GACGAGAC was tested, and the “PBM E-score” value was 0.0457.
In the case of CGCTCTAA, the “PBM E-score” value is reported as 0.0174.
With ATACAGCA the “PBM E-score” value was -0.0098.
With TACTTGGA the “PBM E-score” value was -0.201.
GTGACGGA was tested, and the “PBM E-score” value was 0.214.
CAGCCGGG was tested, and the “PBM E-score” value was 0.2.
For ATCGGACG, the “PBM E-score” value was 0.422.
GGTGAAGA was tested, and the “PBM E-score” value was -0.0724.
For ACTAGCGG, the “PBM E-score” value was 0.143.
CAAGGAAA was tested, and the “PBM E-score” value was -0.0196.
In the case of TAGAGTCA, the “PBM E-score” value is reported as -0.216.
With ATGCTCCC the “PBM E-score” value was -0.12.
For GTTTTCCA, the “PBM E-score” value was -0.113.
ATGCCCAT was tested, and the “PBM E-score” value was -0.326.
ACTGCACA was tested, and the “PBM E-score” value was -0.215.
CATCGTCG was tested, and the “PBM E-score” value was -0.0546.
For CGAAGACC, the “PBM E-score” value was 0.126.
With AGTCGCCA the “PBM E-score” value was -0.255.
With CTCTTAAG the “PBM E-score” value was 0.00808.
With ATCCCCGG the “PBM E-score” value was 0.426.
For CTTTGAGC, the “PBM E-score” value was -0.126.
With ATCCTGCG the “PBM E-score” value was -0.0516.
For TCCTTCCA, the “PBM E-score” value was -0.208.
CATTATTC was tested, and the “PBM E-score” value was 0.13.
GGGAAGAA was tested, and the “PBM E-score” value was -0.0354.
ACACAAGG was tested, and the “PBM E-score” value was -0.25.
With ATAGGTCG the “PBM E-score” value was 0.0778.
With AGTTAATA the “PBM E-score” value was 0.068.
For AGACAGCT, the “PBM E-score” value was -0.21.
CTCACCGC was tested, and the “PBM E-score” value was -0.173.
In the case of GCACCCGC, the “PBM E-score” value is reported as 0.159.
With AGGGTGAT the “PBM E-score” value was -0.15.
For CGAATCGC, the “PBM E-score” value was 0.104.
For ACTGCACT, the “PBM E-score” value was -0.141.
For CGCAAAAC, the “PBM E-score” value was 0.0733.
With CTTGAGAC the “PBM E-score” value was 0.00213.
CATGACCG was tested, and the “PBM E-score” value was 0.153.
In the case of CACGAATG, the “PBM E-score” value is reported as -0.199.
In the case of ACGCCTTC, the “PBM E-score” value is reported as -0.0458.
For AGACCTCT, the “PBM E-score” value was -0.208.
ATAGGTAA was tested, and the “PBM E-score” value was -0.106.
With CTCATAAC the “PBM E-score” value was -0.0544.
In the case of ATGACAAT, the “PBM E-score” value is reported as -0.168.
For ACCGGCGT, the “PBM E-score” value was 0.282.
In the case of TCGCTACA, the “PBM E-score” value is reported as -0.235.
For ATGAATGC, the “PBM E-score” value was -0.0559.
CCACCAAC was tested, and the “PBM E-score” value was 0.102.
In the case of TAAAGACA, the “PBM E-score” value is reported as -0.196.
CGCCTCTC was tested, and the “PBM E-score” value was -0.257.
GAATGCTC was tested, and the “PBM E-score” value was -0.05.
With CAGGCTGA the “PBM E-score” value was -0.18.
In the case of CCATAGGC, the “PBM E-score” value is reported as 0.0453.
In the case of ACGAGCTG, the “PBM E-score” value is reported as -0.0885.
With CAAGCGCA the “PBM E-score” value was 0.0682.
CTTCTGAC was tested, and the “PBM E-score” value was -0.224.
With ACATGAAC the “PBM E-score” value was -0.11.
ATCACAGG was tested, and the “PBM E-score” value was -0.215.
TGCTCCAA was tested, and the “PBM E-score” value was -0.275.
With TCTCGTAA the “PBM E-score” value was 0.00809.
GTATTCAC was tested, and the “PBM E-score” value was 0.0243.
CCCAGTCG was tested, and the “PBM E-score” value was -0.00493.
For ATGCTACG, the “PBM E-score” value was -0.0869.
With AAACGTAC the “PBM E-score” value was -0.288.
For AATTTCTG, the “PBM E-score” value was -0.136.
AAATTTAA was tested, and the “PBM E-score” value was -0.0493.
With GAGCATAA the “PBM E-score” value was 0.0718.
ATACGTAG was tested, and the “PBM E-score” value was -0.186.
GTTCTGCA was tested, and the “PBM E-score” value was -0.0999.
CCGTGCTA was tested, and the “PBM E-score” value was -0.0798.
For ACTCAGCC, the “PBM E-score” value was -0.072.
In the case of AAATACTT, the “PBM E-score” value is reported as -0.00908.
With GGCGTAAC the “PBM E-score” value was 0.0164.
In the case of ATGATACA, the “PBM E-score” value is reported as -0.148.
In the case of ACATACGC, the “PBM E-score” value is reported as 0.078.
In the case of CAATCACG, the “PBM E-score” value is reported as 0.0708.
TGTAAGAA was tested, and the “PBM E-score” value was -0.0011.
For TAACTAGA, the “PBM E-score” value was 0.0345.
With AATAATGG the “PBM E-score” value was 0.121.
With CGGTTATC the “PBM E-score” value was 0.252.
For GGTAGATA, the “PBM E-score” value was 0.12.
In the case of ATAAACAG, the “PBM E-score” value is reported as -0.038.
For AACCCGCT, the “PBM E-score” value was 0.16.
With ACTGAATA the “PBM E-score” value was -0.17.
